In all, about 33,000 sequences were measured (“E-score (-0.5 to 0.5)”: median about -0.056, highest 2% from about 0.38 on). The list shows a part of the results.
Each sequence was assayed against Stb4 (UniProt P50104) (assay: PBM E-score (8-mer binding enrichment) (E-score (-0.5 to 0.5)); higher = stronger / more preferred TF binding; most listed sequences are background and not binding sites). Settings: protein concentration: 200 nM; construct: GST-DNA-binding domain.
Procedure: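 Universal 'all 10-mer' protein binding microarrays (Agilent AMADID 015681) probed with GST-tagged S. cerevisiae TFs (full-length or DBD) made by in vitro transcription/translation (PURExpress), about 100-200 nM. Bound TF was detected with fluorescent anti-GST. Each ungapped 8-mer (which stands for itself and its reverse complement) is scored by the PBM enrichment score (E-score), a modified Wilcoxon-Mann-Whitney statistic from -0.5 to +0.5, computed with the Universal PBM Analysis Suite. Scale: above 0.35 generally sequence-specific binding.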

| Sequence | PBM E-score |
| --- | --- |
| ATGGCGTC | -0.158 |
| AAACGTGC | -0.118 |
| CGAATTAA | 0.0779 |
| AGCTTCCG | 0.423 |
| CCATGTCG | -0.0127 |
| CCGGACCA | 0.201 |
| ACAAGCCC | -0.136 |
| ACTTGCGA | -0.0723 |
| AAGTATAT | 0.099 |
| ATCAGTAG | -0.126 |
| ATCCGACC | 0.425 |
| AGGTAAAG | 0.119 |
| AATTACTG | -0.23 |
| ACTGCGCA | 0.0792 |
| CATGGACC | -0.151 |
| ACAGTTGA | -0.215 |
| ACCCCATC | -0.109 |
| CCCATAAC | 0.041 |
| AGTTTATA | 0.108 |
| CTATCGCA | -0.178 |
| GCCTTGTA | -0.208 |
| CGTAGGTA | 0.0315 |
| CCCAATCA | -0.152 |
| ATGTGACA | -0.294 |
| ACGACTGC | -0.203 |

| Sequence | PBM E-score |
| --- | --- |
| AAACTCAC | -0.091 |
| ATAGATTG | 0.2 |
| CGCCAAAG | -0.163 |
| GAGCCACA | -0.0875 |
| CTGTGCTA | -0.11 |
| ATTGATCC | 0.281 |
| TAACGTTA | 0.164 |
| TCGCGCGA | 0.0834 |
| AGAACTAG | -0.216 |
| CGAATACC | 0.0866 |
| AGATCCAA | -0.16 |
| CAAGTGCG | -0.0295 |
| GGGTCGAA | 0.0324 |
| ATACCGGA | 0.34 |
| CGCAGAAG | -0.1 |
| AGATCTCC | 0.0254 |
| AGGCCGGG | 0.181 |
| CATCCCGG | 0.342 |
| ACCTGTAG | -0.0917 |
| ACAAGAAG | -0.0913 |
| ATAAGAGG | 0.0401 |
| GTGGCAGA | -0.22 |
| ATGTGCCG | 0.299 |
| CCGCTTAC | 0.00078 |
| GAACATGA | 0.0115 |

| Sequence | PBM E-score |
| --- | --- |
| CGAAATTA | 0.259 |
| CATGCCTA | -0.0634 |
| CCCTCGCC | -0.217 |
| TTGCCAAA | 0.0529 |
| TACAAACA | -0.0674 |
| AACCCTGA | -0.0704 |
| CCGGCACC | 0.334 |
| CACGCGCG | -0.169 |
| CTTATGCC | 0.052 |
| GCAAGGGC | -0.269 |
| ATCGATTG | -0.0431 |
| AACGCCAG | 0.0613 |
| AGCCATCC | 0.107 |
| CTGAACAC | 0.00106 |
| GCGTAGGA | 0.0728 |
| CACAGCCA | -0.023 |
| AGCTGGGA | -0.141 |
| CGCCCAGC | -0.1 |
| GAGTACCC | 0.0867 |
| AGGCCGTC | -0.046 |
| CTACCTGC | 0.0989 |
| CACGACCA | -0.118 |
| ATCCGAGA | 0.471 |
| AGGTATAG | -0.0811 |
| CGAAACGC | 0.0894 |

| Sequence | PBM E-score |
| --- | --- |
| GAATGCCA | -0.0318 |
| AGTAGCGG | 0.145 |
| ATCCTTTC | -0.138 |
| GGCCTAAA | -0.102 |
| ACTGTCGA | -0.19 |
| GACGTCGA | -0.0717 |
| ACAGACAG | -0.234 |
| ACCAGTGG | -0.197 |
| GGCGGGGA | 0.309 |
| ACAGTGGT | -0.144 |
| CCGATCTA | 0.281 |
| ATATTAAG | -0.00502 |
| GCAACGCC | -0.0543 |
| AAATGACC | 0.0512 |
| AAAACTTT | 0.0161 |
| CACTGGTC | 0.00588 |
| AACGGCCA | 0.165 |
| GCGTCAAA | -0.139 |
| CGGTTACC | 0.228 |
| ACACGCGT | -0.128 |
| AGTTGCTC | -0.202 |
| AATGGCCA | -0.0901 |
| AGCTTTCA | -0.182 |
| ACCCCGAT | 0.266 |
| AAGTGCTA | -0.264 |

| Sequence | PBM E-score |
| --- | --- |
| GGTTGGAC | 0.00083 |
| CGACGGTC | -0.0145 |
| CAAACAGC | -0.14 |
| AGCGTCGA | -0.226 |
| CACCTTGC | -0.163 |
| TGGCTACA | -0.018 |
| AAGGGAGA | -0.194 |
| CAAACAAA | -0.181 |
| GATCATGA | -0.0718 |
| CTCATCAC | -0.116 |
| GCTGCATA | -0.0697 |
| CGCGCAAA | 0.0132 |
| AAGGGCCA | -0.33 |
| TCCACTAA | -0.0941 |
| CGCCCGAG | 0.328 |
| ATAACATA | 0.0949 |
| ACTGCGTA | -0.143 |
| CTGGGTAA | -0.172 |
| ACTCCTAA | -0.273 |
| ATACACGC | 0.0458 |
| CTGCCCCA | -0.0766 |
| ATCGGGTG | 0.366 |
| GAAACTAA | 0.0282 |
| GCTATGAA | -0.0486 |
| ATTGTACG | -0.0394 |

| Sequence | PBM E-score |
| --- | --- |
| GTCCAGTA | -0.179 |
| AACACAAT | -0.223 |
| TCCGGTCA | 0.204 |
| AATGTGCT | 0.0139 |
| AGGGCCTA | -0.0151 |
| CTGGCATC | -0.176 |
| ACGCTTTC | 0.0561 |
| AATCCGCA | 0.157 |
| AAGGTATC | 0.0541 |
| CTATGGTC | -0.113 |
| CTGGCGTA | -0.264 |
| CCAAGCCA | -0.287 |
| AAGAAAAG | -0.0789 |
| TCGTACAA | -0.243 |
| CACTACTG | -0.189 |
| GAAGGCCA | -0.169 |
| AATAACAA | -0.02 |
| ATTGACCG | 0.0389 |
| CCCAGATA | -0.158 |
| ATCTTATA | -0.0751 |
| ACCATTCA | -0.293 |
| ACAGCCGC | 0.105 |
| CAACGCGG | 0.16 |
| TCGACACA | -0.0789 |
| ATAGAGTA | -0.167 |

| Sequence | PBM E-score |
| --- | --- |
| GGTGCGAA | 0.0551 |
| GGTTCAAC | -0.0243 |
| AAGATAGT | 0.0875 |
| GAACACGA | -0.0146 |
| ACAAGCCG | 0.132 |
| GGGGCGTA | -0.0369 |
| CACTACCG | 0.0779 |
| CCGGCTGA | 0.265 |
| ACTTTGTC | -0.151 |
| CCAGCTCA | -0.219 |
| ATGACCCA | -0.283 |
| CCCATAGC | -0.0731 |
| CTATATTA | -0.0981 |
| ATTGTAGG | -0.0958 |
| CCCTGGAG | -0.316 |
| AGGGGACA | -0.0901 |
| CCAAATTC | -0.00753 |
| CCCCCGTA | -0.267 |
| GTCGGGAA | 0.377 |
| TACTTCAA | -0.1 |
| CTACTGAA | -0.152 |
| CGGGCAAG | 0.106 |

Reference: the supplement of paper PMC3334620
